According to paper PMC5836133:
The other results are listed elsewhere or left out. At the low end of the ranking the order means little.

The sequences below were run on T1, GST-NbGlk1(82-244) (assay: protein-binding microarray). Details: NbGlk1 is a Golden2-like transcription factor of Nicotiana benthamiana; high values mean tight binding; most listed sequences are background and not binding sites; double strand, one strand shown.
T1 sequence: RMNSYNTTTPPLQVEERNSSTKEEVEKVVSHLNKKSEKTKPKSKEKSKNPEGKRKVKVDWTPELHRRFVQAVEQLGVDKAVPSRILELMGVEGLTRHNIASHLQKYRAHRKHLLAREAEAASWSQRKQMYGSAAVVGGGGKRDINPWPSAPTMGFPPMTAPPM
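Further: rank-based score ranging −0.5 to +0.5 with E above 0.45 taken as significant binding.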

Sequence | binding signal [E-score]
ACCTCTAA | -0.174
CAGAGCAC | -0.176
ATGCTCCC | -0.213
AGGCATGC | -0.305
ATGTATCA | 0.164
ATTAACGA | 0.0874
ATCCCGAT | 0.294
ACCGGGCG | -0.312
AATTCCGG | 0.0693
ACTTTATG | -0.000381
CAACCTGA | 0.0173
ACCTTCAG | -0.203
ATGACTAA | 0.0349
AGTAAAAT | 0.292
ACCCCAGA | -0.189
AACGTACA | -0.0481
CAATGCTG | -0.0932
AATTCCGC | 0.124
ATACTGAC | 0.0556
ACCGCCTC | -0.315
AGGTTTAT | -0.0917
ATTTTGGG | 0.261
ACATTATC | 0.134
ACTACGCT | -0.115
ACGCAGAT | 0.293

Sequence | binding signal [E-score]
AGTTCCTG | -0.0821
ATATATGC | 0.192
ATACTAAA | 0.135
AGAGTCCC | -0.169
AGTGAATG | -0.0843
ATTACTTG | 0.12
AAGGCTCT | -0.25
ATCTCATC | 0.312
ATACGGCA | 0.113
AATGAAAG | -0.0895
AGCCACCG | -0.198
AAGCTTCA | -0.125
ATGAGAAG | 0.0461
ATCAAACC | 0.0517
ACATCAGG | 0.014
CACTAGAA | -0.00103
AATACAAG | 0.0661
ATGTGAGC | -0.181
ACGCATCT | -0.144
ATCTATCG | 0.164
CAGCAATG | -0.186
ATCCTATG | 0.0957
AGGGCAAC | -0.0981
ATAAAGCA | -0.00984
AGGCACAG | -0.191

Sequence | binding signal [E-score]
CACCGAAA | 0.108
ACAAGATC | 0.295
AGCTGTGA | 0.00295
AATCATTC | 0.175
ATCGGAAT | 0.289
ATGTTTCA | 0.148
ACCATAGG | -0.0416
AAAACTAG | 0.0742
ATAGGATA | 0.247
AGTATGGC | -0.204
AGTGCTTA | 0.0517
AGTGTTAG | -0.145
AAAATAAG | 0.094
AGACGCGG | -0.196
ATCCCCGG | 0.256
ATACGGGC | -0.0782
AAAAACTT | 0.113
ATCCATAA | 0.273
ATGTTTAC | 0.0125
ATTTCGGA | 0.309
ACTCCAAA | 0.00614
AACCTCGC | -0.0755
ATTTCAAA | 0.231
AAATGTTC | 0.00213
CACGTGAG | -0.0425

Sequence | binding signal [E-score]
ACTCTAGC | -0.17
AGAGCGAG | -0.0893
ACGCTTAC | -0.053
AGAATTGC | 0.108
ATCCGACG | 0.196
ATGACGGC | -0.121
ACCGGTGG | -0.255
CAAATCGG | 0.252
ATCATATA | 0.211
AAGACACA | -0.035
AGGCTCAC | -0.185
AATGAACT | -0.121
ACAGTCCG | -0.142
AGCTAGCA | -0.1
ACCAGGAT | 0.2
AGCAAGGG | -0.101
ATCGGACA | 0.045
CACTCACC | -0.0951
ATGTGCGA | 0.0859
AGGCAACT | -0.127
AGGTGTGA | 0.0761
ATCGTGGC | 0.0619
CAACGTCA | -0.0614
ACGGAACC | -0.023
ATCCTACA | 0.298

Sequence | binding signal [E-score]
AATGGATG | 0.101
AAGCTGTA | -0.0326
ATGTGTAC | -0.00202
ACGCCGAA | 0.0399
AAAAGAAA | 0.178
AGGGCAGG | -0.258
ACGGGAAT | 0.324
AACGTCAA | -0.0144
ATCCCTAC | 0.121
AGTTAGAT | 0.26
AAATCGCA | 0.379
AGATTCAC | 0.289
ATCCCATA | 0.279
CACCATGA | -0.0485
AAAGCGCG | 0.0534
ACCGGCCA | -0.214
AGCAACCG | -0.232
AGTAATGC | -0.021
AGATAAAT | 0.0951
AAATCCTC | 0.414
ATAATCGC | 0.207
AACGTCAC | -0.152
ATCGTGTC | 0.225
ACGCTCCC | -0.128
AACCACTC | 0.012

Sequence | binding signal [E-score]
AAAACATG | -0.0415
ATAGGAGA | 0.0837
AGGGGTGG | -0.126
AGATAGGA | 0.0391
AAAGGGGA | -0.0574
ATGCGATA | 0.191
AGGTTAAG | -0.0954
AATCGAGA | 0.293
ACTACAGC | -0.155
ACGGAATG | 0.0185
AAGTCTAC | -0.221
ACTGCTCA | -0.0694
AACACTCC | -0.174
ACTCTGAT | 0.136
AAGCTCTC | -0.22
ACTGTATC | -0.0161
ACTACTAA | 0.0966
AAAGAATG | 0.0221
AAGAGTTA | 0.0236
AACTAGAG | -0.15
ACTCTGGC | -0.224
AAACCAGG | -0.212
ATCTAAGC | 0.262
ATATAGGG | 0.00847
ACTGAATG | -0.0978

Sequence | binding signal [E-score]
ACTCAAGG | 0.0715
CACGCCTC | -0.195
ATGGATTA | 0.326
AACTAGTT | 0.00818
ATTGTGGG | 0.191
CAGCAGTA | -0.12
AATTAGAG | 0.025
ATGGGTAC | -0.191
ACCCAGGG | -0.238
ATGCACAT | 0.0177
CACGGCTG | -0.229
AAGGAAGT | -0.139
AAGTGGTC | -0.236
AGAGGCGA | -0.00537
ACGGTGGC | -0.159
ATTTTGTC | 0.341
ACATTCAG | 0.0565
AACAGCTA | -0.0363
ACATGGCA | -0.145
CAGCCTTA | -0.143
CACTGTAG | -0.0893
AAGTGGCC | -0.272
